# Hit rate of the full screen: of about 130,000 compounds, about 1,900 (1.5%) were called active. Inconclusive results, whose numbers are uncertain, are shown with a selection of clear calls. Calls come from the whole dose curve; as a rule, active = well fitted cell-killing curve with a large enough effect; inconclusive = small, poorly fitted or top-dose-only effect; inactive = no such curve, though single readings can be large or run the other way. Potencies of inconclusive entries are doubtful fits and often do not repeat.
# Assay: qHTS Screen for Compounds that Selectively Target Cancer Cells with p53 Mutations: Cytotoxicity of p53ts Cells at the Nonpermissive Temperature; note: nearly all actives have a fitted effect of over 55% in size
# Conditions: H1299-p53A138V viability at 39C, ATP luminescence, 24 h; activity change, negative = cell killing: at 46.1 µM (top of the series)
# % is set by controls: 0 for no effect and ±100 for the full control effect; potency is the fitted concentration of half-maximal effect; tags give direction and shape of the fitted curve.
SMILES,Potency,"activity change, negative = cell killing"
CCOc1ccc2nc(N3CCCC(C(=O)Nc4c(C)cccc4C)C3)sc2c1 (stereo not given),"inconclusive: 25.1 µM [cytotoxic, single point]",
COc1ccc(-n2c(SCC(=O)Nc3ccc(Cl)c(C)c3)nc3n[nH]c(C)c3c2=N)cc1,"inconclusive: 35.5 µM [cytotoxic, single point]",
COc1ccc(S(=O)(=O)n2nc(C)c(S(=O)(=O)N3CCC(C)CC3)c2C)cc1C,"inconclusive: 0.0316 µM [cytotoxic, full curve, poor fit]",
CCc1ccc(S(=O)(=O)c2cn(CC(=O)Nc3ccc(C)cc3)c3ccccc3c2=O)cc1,inactive,
CCCCOc1ccc(C(=O)Nc2nnc3n2CCS3)cc1,"inconclusive: 12.6 µM [cytotoxic, partial curve]",
O=c1c2ccccc2nc(-c2ccco2)n1/N=C/c1ccco1,inactive,
Cc1cccc(OCC(=O)N2CCC(c3ccccc3)C2)c1 (stereo not given),"inconclusive: 7.94 µM [cytotoxic, partial curve]",
Nc1nc2ccc(Oc3ccccc3)cc2s1,"inconclusive: 12.6 µM [cytotoxic, partial curve]",
Cc1ccc(-n2nc(C)c(C(=O)NCCCN3CCN(c4ccc(F)cc4)CC3)c2-n2cccc2)cc1,"inconclusive: 2.82 µM [cytotoxic, partial curve, poor fit]",
CCN(CC)c1ccc2oc(=O)c(C)nc2c1,"inconclusive: 31.6 µM [cytotoxic, single point]",
Nc1c(-c2nc(-c3cccs3)no2)nnn1-c1ccccc1Cl,"inconclusive: 0.01 µM [cytotoxic, full curve]",
O=C(O)c1cc(-c2ccco2)nc2ccccc12,"inconclusive: 15.8 µM [cytotoxic, single point]",
O=C(NCCc1ccccc1)c1ccc2c(c1)CCN2S(=O)(=O)c1ccccc1,,inconclusive: -33.9% [cytotoxic]
CNc1ncnc(Sc2nc(N)nc3nc[nH]c23)c1[N+](=O)[O-],"inconclusive: 3.98 µM [cytotoxic, single point]",
Cc1cc2nc(-c3cccc(NC(=O)c4ccc(Br)o4)c3C)oc2cc1C,"inconclusive: 7.94 µM [cytotoxic, partial curve]",
Cc1cccc(N2CCN(C(=O)c3ccc(NC(=O)c4nsc5ccccc45)cc3)CC2)c1C,"inconclusive: 7.94 µM [cytotoxic, partial curve]",
Cc1nc2c(C(=O)NCCc3ccccc3)c[nH]n2c(=O)c1Cc1ccc(F)cc1Cl,"inconclusive: 31.6 µM [cytotoxic, single point]",
CN1CCN(c2ncc3nc(-c4cn(C)c5ccccc45)c(=O)n(Cc4cccs4)c3n2)CC1,"inconclusive: 12.6 µM [cytotoxic, single point]",
Cc1occc1C(=O)Nc1ccc2c(c1)OCCO2,"inconclusive: 15.8 µM [cytotoxic, single point]",
Cc1ccc(CCNC(=O)c2ccc3c(c2)c(C)c(C)n3Cc2ccccc2)cc1,inactive,
CN1CCc2cccc3c2[C@@H]1Cc1ccc(O)c(O)c1-3,active: 10 µM,
Cc1cc(C)cc(NC(=O)CCS(=O)(=O)c2ccc3c(c2)oc(=O)n3C)c1,inactive,
Cc1cccc(-n2ncc3c(N4CCN(CCO)CC4)ncnc32)c1,inactive,
O=c1cnc2cncnc2n1Cc1ccccc1,inactive,

SMILES,Potency,"activity change, negative = cell killing"
CCc1ccc(NC(=O)N(Cc2cn(CC)c3ccccc23)C2CCCCC2)cc1,"inconclusive: 15.8 µM [cytotoxic, single point]",
CCOc1ccccc1Nc1ncnc2c1c(-c1ccccc1)cn2-c1ccc(OC)cc1,"inconclusive: 6.31 µM [cytotoxic, partial curve, poor fit]",
O=C1c2[nH]nc(-c3ccccc3O)c2C(c2ccc(Cl)cc2)N1CCc1ccccc1 (stereo not given),"inconclusive: 31.6 µM [cytotoxic, single point]",
CCn1cc([N+](=O)[O-])c(C(=O)N2N=C(c3ccc4ccccc4c3)CC2c2cc(Br)ccc2O)n1 (stereo not given),inactive,
Cc1ccc(Cl)cc1N1CCN(C(=O)C2CCCN(Cc3nc(-c4cccc(Cl)c4)oc3C)C2)CC1 (stereo not given),"inconclusive: 15.8 µM [cytotoxic, single point]",
CCn1cnc2cc(NC(=O)c3ccco3)ccc21,active: 8.91 µM,
CC(C)CCNC(=O)c1ccc2c(c1)nc1n2CCCCC1,active: 3.16 µM,
CCn1c(=O)cc(SCC(=O)NCc2ccc(C)cc2)c2ccccc21,"inconclusive: 1.26 µM [cytotoxic, partial curve]",
Cc1ccc(-c2cc3nc(C)cc(NCc4ccco4)n3n2)cc1,"inconclusive: 12.6 µM [cytotoxic, partial curve]",
Cc1ccc2cc3cc(C(=O)N(C)c4ccccc4C)oc3nc2c1,active: 10 µM,
OC(CN1CCC(Cc2ccc(F)cc2)CC1)c1ccc(Cl)cc1 (stereo not given),"inconclusive: 31.6 µM [cytotoxic, single point]",
CCOC(=O)[C@@]12C[C@@H]1/C(=N/O)c1ccccc1O2,inactive,
COc1ccc(Cc2c(C)nn(-c3nc(C)c(C(=O)Nc4ccc(C)cc4C)s3)c2C)cc1,"inconclusive: 15.8 µM [cytotoxic, partial curve]",
Cn1c(C(C#N)C(=O)c2ccco2)nc2ccccc21 (stereo not given),"inconclusive: 20 µM [cytotoxic, single point]",
c1ccc(-c2noc(-c3ccc4ccccc4c3)n2)nc1,active: 0.631 µM,
CCCCc1ccc(NC(=O)CSc2nnc3[nH]c(=O)cc(C)n23)cc1,"inconclusive: 10 µM [cytotoxic, single point]",
CCN(CC)CCNC(=O)c1cc2c(=O)oc3ccc(C)cc3c2s1,"inconclusive: 12.6 µM [cytotoxic, single point]",
O=C(O)c1ccc(NS(=O)(=O)c2cccc3ccccc23)cc1,inactive,
COc1cc(OC)c(NC(=O)c2c3c(nc4ccccc24)C(=O)N(C2CCCCC2)C3)cc1Cl,"inconclusive: 7.94 µM [cytotoxic, partial curve]",
Cc1cc(Cl)ccc1NC(=O)c1cc2ccccn2n1,active: 5.01 µM,
CCN(Cc1nc(-c2ccc(OC)cc2)oc1C)S(=O)(=O)c1ccc(Cl)cc1,"inconclusive: 1.26 µM [cytotoxic, full curve, poor fit]",
Cc1ccc2cc(CCNC(=O)C3CCCC3)c(=O)[nH]c2c1,"inconclusive: 25.1 µM [cytotoxic, single point]",
Cc1ccc(S(=O)(=O)Cn2nnnc2C(C(C)C)N2CCN(Cc3ccco3)CC2)cc1 (stereo not given),inactive,
Cc1cc(C)c(Cn2c(C)c(CNCc3ccccc3C)c(C(=O)O)c2C)c(C)c1,inactive,

SMILES,Potency,"activity change, negative = cell killing"
O=C(Cc1ccccc1)Nc1nnc(-c2cccc([N+](=O)[O-])c2)s1,inactive,
CCN1C(=O)c2ccccc2Sc2ccc(NC(=O)Nc3ccc(C(C)=O)cc3)cc21,inactive,
Cc1ccc(-c2cnc(NCc3ccc(C(C)C)cc3)n2C)cc1,"inconclusive: 31.6 µM [cytotoxic, single point]",
Cc1ccc(-n2ncc3c(N4CCC(C)CC4)ncnc32)cc1C,"inconclusive: 6.31 µM [cytotoxic, partial curve]",
Cc1ccc(NCc2nc3ccccc3n2CCOc2ccccc2C)cc1,"inconclusive: 1.26 µM [cytotoxic, partial curve]",
COc1ccc(NCc2nc3ccccc3n2CCOc2ccc(C)cc2)cc1,"inconclusive: 15.8 µM [cytotoxic, single point]",
N#Cc1c(-c2ccccc2)nc(SCC(=O)N(c2ccccc2)c2ccccc2)[nH]c1=O,inactive,
O=C(COc1ccc(F)cc1)Nc1nccs1,"inconclusive: 10 µM [cytotoxic, single point]",
COC(=O)[C@@]1(Cc2ccccc2)[C@H]2c3cc(C(=O)N4CCCC4)n(CCN4CNCC4=O)c3C[C@H]2CN1C(=O)c1ccccc1,inactive,
Cc1cc(C)c(S(=O)(=O)NCC(c2ccc(N(C)C)cc2)N2CCc3ccccc32)c(C)c1 (stereo not given),"inconclusive: 10 µM [cytotoxic, partial curve, poor fit]",
O=C(Nc1cccnc1)c1cnn2cccnc12,inactive,
CS(=O)(=O)c1ccc2nc(NC(=O)c3ccco3)sc2c1,active: 12.6 µM,
COc1ccc2nc(N(Cc3cccnc3)C(=O)c3ccco3)sc2c1,"inconclusive: 0.01 µM [cytotoxic, full curve, poor fit]",
CCOC(=O)C1=C(CN2CCN(c3cc(C)ccc3C)CC2)NC(=O)NC1c1ccccc1 (stereo not given),"inconclusive: 6.31 µM [cytotoxic, single point]",
CCOC(=O)c1cc(-c2ccc(C)cc2)n(CC(=O)Nc2ccc(OC)c(Cl)c2)c1C,active: 7.94 µM,
CCOc1cc2c(C#N)c(N3CCOCC3)nc(N)c2c(N)n1,inactive,
Cc1ccc(CCNC(=O)c2cc3sccc3n2Cc2ccc(Cl)cc2)cc1,"inconclusive: 10 µM [cytotoxic, single point]",
Cc1cc(O)c(C(C)(C)C)cc1Sc1cc(C(C)(C)C)c(O)cc1C,active: 15.8 µM,
COc1ccc(-n2c(=O)c(-c3cccs3)nc3cnc(N4CCOCC4)nc32)cc1,inactive,
COc1ccc(-c2coc3c(O)c(OC)ccc3c2=O)cc1,"inconclusive: 12.6 µM [cytotoxic, partial curve]",
COc1ccc(/C=C/C(=O)Nc2ccc(Cl)c(Cl)c2)cc1OC,"inconclusive: 31.6 µM [cytotoxic, single point]",
O=C(Cn1nc(C(F)(F)F)c2c1CCCC2)Nc1ccc(F)c(Cl)c1,"inconclusive: 31.6 µM [cytotoxic, single point]",
